# From article PMC12529666
# This is a selection; strong and weak results do not stand in their true shares. At the low end of the ranking the order means little. The list shows a part of the results.
# How the values were obtained:
# [1] = molecular target: AGO2 WT (phosphosite mutant background) S387D + S824A + S828D + S831D + S834A (UniProt Q9UKV8); experiment: RNA Bind-n-Seq (nitrocellulose filter binding and sequencing); conditions: constant regions annealed to DNA blockers; guide miR-122 5' phosphate; 30 mM Tris pH 8.0, 100 mM potassium acetate, 2 mM magnesium acetate, 0.5 mM TCEP, 0.005% NP-40, 0.01 mg/ml yeast tRNA; 3 nM AGO2-miR-122, 100 nM RNA library …; high values mean tight binding
# [2] = molecular target: AGO2 F182del S387D + S824A + S828D + S831D + S834A + del182-182 (UniProt Q9UKV8); experiment: as above; conditions: constant regions annealed to DNA blockers; guide miR-122 5' phosphate; 30 mM Tris pH 8.0, 100 mM potassium acetate, 2 mM magnesium acetate, 0.5 mM TCEP, 0.005% NP-40, 0.01 mg/ml yeast tRNA; 3 nM AGO2-miR-122, 100 nM RNA library …; high values mean tight binding
Sequence,binding signal (fold enrichment over input) [1],binding signal (fold enrichment over input) [2]
GAGUUCUACAGUCCGACGAUCCCAACGUGUCUUACACCUGGAAUUCUCGGGUGCCAA / UGGAGUGUGACAAUGGUGUUUG / GATCGTCGGACTGTAGAACTC / TTGGCACCCGAGAATTCCA,0.113,0.0799
GAGUUCUACAGUCCGACGAUCCCAACGUACCUUACACCUGGAAUUCUCGGGUGCCAA / UGGAGUGUGACAAUGGUGUUUG / GATCGTCGGACTGTAGAACTC / TTGGCACCCGAGAATTCCA,0.108,0.0874
GAGUUCUACAGUCCGACGAUCCCAACGCACUUUGCACCUGGAAUUCUCGGGUGCCAA / UGGAGUGUGACAAUGGUGUUUG / GATCGTCGGACTGTAGAACTC / TTGGCACCCGAGAATTCCA,0.0824,0.0347
GAGUUCUACAGUCCGACGAUCCCAACGUACCCUACACCUGGAAUUCUCGGGUGCCAA / UGGAGUGUGACAAUGGUGUUUG / GATCGTCGGACTGTAGAACTC / TTGGCACCCGAGAATTCCA,0.0972,0.0684
GAGUUCUACAGUCCGACGAUCCCAACGUGUUCUGCACCUGGAAUUCUCGGGUGCCAA / UGGAGUGUGACAAUGGUGUUUG / GATCGTCGGACTGTAGAACTC / TTGGCACCCGAGAATTCCA,0.0929,0.0348
